In the supplement of paper PMC8728848:
This is one part of the list.

What was measured:
Assay in all cases: glycan array binding signal (z-score within array); higher = stronger binding
Settings in all cases: glycan notation: IUPAC condensed, linker removed; mutation: Y228W
[1] = molecular target: GlcNAc(a1-6)Gal(b1-4)GlcNAc
Procedure, shortened: (§1)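 From the Consortium for Functional Glycomics database, 3228 arrays were curated, keeping only those whose protein sequence was available. Binding is given as a within-array Z-score averaged across arrays sharing a protein sequence and across linkers. Negative Z-scores can be read as non-binding.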

[2] = molecular target: GlcNAc(b1-2)Gal(b1-3)GalNAc
Procedure, shortened: as §1

[3] = molecular target: GlcNAc(b1-2)Man(a1-3)[GlcNAc(b1-2)Man(a1-6)]Man(b1-4)GlcNAc(b1-4)GlcNAc
Procedure, shortened: as §1

[4] = molecular target: GlcNAc(b1-2)Man(a1-3)[GlcNAc(b1-2)Man(a1-6)]Man(b1-4)GlcNAc(b1-4)[Fuc(a1-6)]GlcNAc
Procedure, shortened: as §1

[5] = molecular target: GlcNAc(b1-2)Man(a1-3)[GlcNAc(b1-4)][GlcNAc(b1-2)Man(a1-6)]Man(b1-4)GlcNAc(b1-4)GlcNAc
Procedure, shortened: as §1

[6] = molecular target: GlcNAc(b1-2)Man(a1-3)[GlcNAc(b1-4)][GlcNAc(b1-2)Man(a1-6)]Man(b1-4)GlcNAc(b1-4)[Fuc(a1-6)]GlcNAc
Procedure, shortened: as §1

[7] = molecular target: GlcNAc(b1-2)[GlcNAc(b1-4)]Man(a1-3)[GlcNAc(b1-2)Man(a1-6)]Man(b1-4)GlcNAc(b1-4)GlcNAc
Procedure, shortened: as §1

[8] = molecular target: GlcNAc(b1-2)[GlcNAc(b1-4)]Man(a1-3)[GlcNAc(b1-4)][GlcNAc(b1-2)Man(a1-6)]Man(b1-4)GlcNAc(b1-4)GlcNAc
Procedure, shortened: as §1

[9] = molecular target: GlcNAc(b1-2)[GlcNAc(b1-4)]Man(a1-3)[GlcNAc(b1-4)][GlcNAc(b1-2)[GlcNAc(b1-6)]Man(a1-6)]Man(b1-4)GlcNAc(b1-4)GlcNAc
Procedure, shortened: as §1

[10] = molecular target: GlcNAc(b1-2)[GlcNAc(b1-4)]Man(a1-3)[GlcNAc(b1-4)][GlcNAc(b1-2)[GlcNAc(b1-6)]Man(a1-6)]Man(b1-4)GlcNAc(b1-4)[Fuc(a1-6)]GlcNAc
Procedure, shortened: as §1

[11] = molecular target: GlcNAc(b1-2)[GlcNAc(b1-6)]Man(a1-6)[GlcNAc(b1-2)Man(a1-3)]Man(b1-4)GlcNAc(b1-4)GlcNAc
Procedure, shortened: as §1

[12] = molecular target: GlcNAc(b1-2)[GlcNAc(b1-6)]Man(a1-6)[GlcNAc(b1-2)Man(a1-3)]Man(b1-4)GlcNAc(b1-4)[Fuc(a1-6)]GlcNAc
Procedure, shortened: as §1

[13] = molecular target: GlcNAc(b1-2)[GlcNAc(b1-6)]Man(a1-6)[GlcNAc(b1-4)][GlcNAc(b1-2)Man(a1-3)]Man(b1-4)GlcNAc(b1-4)GlcNAc
Procedure, shortened: as §1

GlcNAc(b1-3)Fuc = molecular target: GlcNAc(b1-3)Fuc
Procedure, shortened: as §1

GlcNAc(b1-3)Gal = molecular target: GlcNAc(b1-3)Gal
Procedure, shortened: as §1

[14] = molecular target: GlcNAc(b1-3)Gal(b1-3)GalNAc
Procedure, shortened: as §1

GlcNAc(b1-3)Gal(b1-4)Glc = molecular target: GlcNAc(b1-3)Gal(b1-4)Glc
Procedure, shortened: as §1

[15] = molecular target: GlcNAc(b1-3)Gal(b1-4)GlcNAc
Procedure, shortened: as §1

[16] = molecular target: GlcNAc(b1-3)Gal(b1-4)GlcNAc(b1-2)Man(a1-3)[GlcNAc(b1-3)Gal(b1-4)GlcNAc(b1-2)Man(a1-6)]Man(b1-4)GlcNAc(b1-4)GlcNAc
Procedure, shortened: as §1

[17] = molecular target: GlcNAc(b1-3)Gal(b1-4)GlcNAc(b1-2)Man(a1-3)[GlcNAc(b1-3)Gal(b1-4)GlcNAc(b1-2)Man(a1-6)]Man(b1-4)GlcNAc(b1-4)[Fuc(a1-6)]GlcNAc
Procedure, shortened: as §1

[18] = molecular target: GlcNAc(b1-3)Gal(b1-4)GlcNAc(b1-2)[GlcNAc(b1-3)Gal(b1-4)GlcNAc(b1-6)]Man(a1-6)[GlcNAc(b1-3)Gal(b1-4)GlcNAc(b1-2)Man(a1-3)]Man(b1-4)GlcNAc(b1-4)GlcNAc
Procedure, shortened: as §1

[19] = molecular target: GlcNAc(b1-3)Gal(b1-4)GlcNAc(b1-3)Gal(b1-4)GlcNAc
Procedure, shortened: as §1

[20] = molecular target: GlcNAc(b1-3)Gal(b1-4)GlcNAc(b1-3)Gal(b1-4)GlcNAc(b1-2)Man(a1-3)[GlcNAc(b1-3)Gal(b1-4)GlcNAc(b1-3)Gal(b1-4)GlcNAc(b1-2)Man(a1-6)]Man(b1-4)GlcNAc(b1-4)GlcNAc
Procedure, shortened: as §1

[21] = molecular target: GlcNAc(b1-3)Gal(b1-4)GlcNAc(b1-3)Gal(b1-4)GlcNAc(b1-2)Man(a1-3)[GlcNAc(b1-3)Gal(b1-4)GlcNAc(b1-3)Gal(b1-4)GlcNAc(b1-2)Man(a1-6)]Man(b1-4)GlcNAc(b1-4)[Fuc(a1-6)]GlcNAc
Procedure, shortened: as §1

[22] = molecular target: GlcNAc(b1-3)Gal(b1-4)GlcNAc(b1-3)Gal(b1-4)GlcNAc(b1-2)[GlcNAc(b1-3)Gal(b1-4)GlcNAc(b1-3)Gal(b1-4)GlcNAc(b1-6)]Man(a1-6)[GlcNAc(b1-3)Gal(b1-4)GlcNAc(b1-3)Gal(b1-4)GlcNAc(b1-2)Man(a1-3)]Man(b1-4)GlcNAc(b1-4)[Fuc(a1-6)]GlcNAc
Procedure, shortened: as §1

[23] = molecular target: GlcNAc(b1-3)Gal(b1-4)GlcNAc(b1-3)Gal(b1-4)GlcNAc(b1-3)Gal(b1-4)GlcNAc(b1-2)Man(a1-3)[GlcNAc(b1-3)Gal(b1-4)GlcNAc(b1-3)Gal(b1-4)GlcNAc(b1-3)Gal(b1-4)GlcNAc(b1-2)Man(a1-6)]Man(b1-4)GlcNAc(b1-4)GlcNAc
Procedure, shortened: as §1

[24] = molecular target: GlcNAc(b1-3)Gal(b1-4)GlcNAc(b1-3)Gal(b1-4)GlcNAc(b1-3)Gal(b1-4)GlcNAc(b1-2)Man(a1-3)[GlcNAc(b1-3)Gal(b1-4)GlcNAc(b1-3)Gal(b1-4)GlcNAc(b1-3)Gal(b1-4)GlcNAc(b1-2)Man(a1-6)]Man(b1-4)GlcNAc(b1-4)[Fuc(a1-6)]GlcNAc
Procedure, shortened: as §1

[25] = molecular target: GlcNAc(b1-3)Gal(b1-4)GlcNAc(b1-3)Gal(b1-4)GlcNAc(b1-3)Gal(b1-4)GlcNAc(b1-2)[GlcNAc(b1-3)Gal(b1-4)GlcNAc(b1-3)Gal(b1-4)GlcNAc(b1-3)Gal(b1-4)GlcNAc(b1-6)]Man(a1-6)[GlcNAc(b1-3)Gal(b1-4)GlcNAc(b1-3)Gal(b1-4)GlcNAc(b1-3)Gal(b1-4)GlcNAc(b1-2)Man(a1-3)]Man(b1-4)GlcNAc(b1-4)[Fuc(a1-6)]GlcNAc
Procedure, shortened: as §1

[26] = molecular target: GlcNAc(b1-3)Gal(b1-4)GlcNAc(b1-3)Gal(b1-4)GlcNAc(b1-3)Gal(b1-4)GlcNAc(b1-3)Gal(b1-4)GlcNAc(b1-2)Man(a1-3)[GlcNAc(b1-3)Gal(b1-4)GlcNAc(b1-3)Gal(b1-4)GlcNAc(b1-3)Gal(b1-4)GlcNAc(b1-3)Gal(b1-4)GlcNAc(b1-2)Man(a1-6)]Man(b1-4)GlcNAc(b1-4)GlcNAc
Procedure, shortened: as §1

[27] = molecular target: GlcNAc(b1-3)Gal(b1-4)GlcNAc(b1-3)Gal(b1-4)GlcNAc(b1-3)Gal(b1-4)GlcNAc(b1-3)Gal(b1-4)GlcNAc(b1-2)Man(a1-3)[GlcNAc(b1-3)Gal(b1-4)GlcNAc(b1-3)Gal(b1-4)GlcNAc(b1-3)Gal(b1-4)GlcNAc(b1-3)Gal(b1-4)GlcNAc(b1-2)Man(a1-6)]Man(b1-4)GlcNAc(b1-4)[Fuc(a1-6)]GlcNAc
Procedure, shortened: as §1

B1: Epa1-NP-mutant-Y228W (Candida glabrata), Q6VBJ0 (protein)
chain: MILNPALFLNKCVCIYTTLILLLLTNGGYATSSNDISLASKDPTTFPLGCSPDITTPKKGLSMELYSYDFRKKGSYPCWDAAYLDPNYPRTGYKSHRLLAKVDGVTGNINFYYHATKGCTPQLGHLPASYNYPKPLTMTNFTMLLYGYFRPKVTGFHTFTISADDLLFVNFGAGNAFDCCRRDSSADHFGNYQAYAIWGSKTAKDELTVHLDAGVYYPIRLFYNNREWDGALSFTFKTESNENTVSDFSEYFFSLDDTEEGCPGLISYDSSCASVKTSKIIGIDYHTETPNENLVPITKTIYHLGIPCTGTTTTPLCGSGFYDPLANKCVTINTSSTSSVTKTTSHTTSKEVSFHSSISSQKTLIPKSIPSPYGPIKSQSIPTEMETSSEISSSEYAFSDVISTPSHSPYTKKHSSLNSSSYTSTVIHSLTSYSISQGIFSTSLSEQNITSKSSTDKFSTATSMSNNITQSSIIISQFSTNNENYTTTSMHTSSDKISTETLNNSISTTTSILFSNSSTILKNNTTIISSDKDTHYHPVNPTIVCSTNKTEIICASITQPSISNSNNHWSSSVLKFNSTTVRSTLPSSAGSNETSINVPFSSSTESNTSTSSTSTSNSKMVRSTLPSSAGSNETSISVPFSSSTESNTSTSSTSTSNSKMVRSTLPSSAGSNETSINVPFSSSTESNTSTSSTSTSNSKTVRSTPFSSAGIIMTSLSQRNNKSASSYASSNSKCYNTADSCRKVHSTPSYLLTSSYTSEGVDYDCSLVSTKLKINDTNCVNNKHTTKSCLKTSVTTTIPTLEIKTARKSSSNTIGLHSYPTSSPNKSISSAPIIGYISSFKTIKTASPSYQTSDLTTITTITSLNNPGSTAVENTHESNDKSRKTSSNDISSKHSVIKETKDAVESSNKSHQTNTLKCSSIIIASSSHNSYESLGGTTLTLTLSKVYSPQNNDTLPFLEISEVNPSRTVLPESSKMMQYLTSTEERNKTARNTIATNIVSISTFHFEGEGNAIRMGYTQLLLMLIGIIVMNIGT
glycan array binding signal (z-score) [1]: 0.416 | glycan array binding signal (z-score) [2]: -0.311 | glycan array binding signal (z-score) [3]: -0.079 | glycan array binding signal (z-score) [4]: -0.3 | glycan array binding signal (z-score) [5]: -0.224 | glycan array binding signal (z-score) [6]: -0.309 | glycan array binding signal (z-score) [7]: -0.038 | glycan array binding signal (z-score) [8]: -0.259 | glycan array binding signal (z-score) [9]: -0.384 | glycan array binding signal (z-score) [10]: -0.045 | glycan array binding signal (z-score) [11]: -0.333 | glycan array binding signal (z-score) [12]: -0.032 | glycan array binding signal (z-score) [13]: -0.347 | glycan array binding signal (z-score) (GlcNAc(b1-3)Fuc): -0.242 | glycan array binding signal (z-score) (GlcNAc(b1-3)Gal): -0.421 | glycan array binding signal (z-score) [14]: -0.024 | glycan array binding signal (z-score) (GlcNAc(b1-3)Gal(b1-4)Glc): -0.087 | glycan array binding signal (z-score) [15]: -0.167 | glycan array binding signal (z-score) [16]: -0.088 | glycan array binding signal (z-score) [17]: 0.114 | glycan array binding signal (z-score) [18]: 0.255 | glycan array binding signal (z-score) [19]: -0.186 | glycan array binding signal (z-score) [20]: -0.022 | glycan array binding signal (z-score) [21]: 0.216 | glycan array binding signal (z-score) [22]: 0.065 | glycan array binding signal (z-score) [23]: -0.342 | glycan array binding signal (z-score) [24]: 0.23 | glycan array binding signal (z-score) [25]: 0.373 | glycan array binding signal (z-score) [26]: -0.251 | glycan array binding signal (z-score) [27]: -0.248
